Measurements as given in the GPR68 mutational scans of Howard et al. (2025).
The least precise scores are not listed. Not listed are two conditions whose scores span a narrow range. Read del as a deletion of the residues named and ins as an insertion between two positions. For some of these results: How much ogerin was present is not stated here.

B1: GPR68, Q15743 (parent)
chain: MGNITADNSSMSCTIDHTIHQTLAPVVYVTVLVVGFPANCLSLYFGYLQIKARNELGVYLCNLTVADLFYICSLPFWLQYVLQHDNWSHGDLSCQVCGILLYENIYISVGFLCCISVDRYLAVAHPFRFHQFRTLKAAVGVSVVIWAKELLTSIYFLMHEEVIEDENQHRVCFEHYPIQAWQRAINYYRFLVGFLFPICLLLASYQGILRAVRRSHGTQKSRKDQIQRLVLSTVVIFLACFLPYHVLLLVRSVWEASCDFAKGVFNAYHFSLLLTSFNCVADPVLYCFVSETTHRDLARLRGACLAFLTCSRTGRAREAYPLGAPEASGKSGAQGEEPELLTKLHPAFQTPNSPGSGGFPTGRLA

Key:
[1] = variants of: B1; assay: cAMP reporter score (Enrich2 score, wild type = 0); higher = more signal; HEK293T, FACS bins
[2] = variants of: B1; assay: surface expression score (Enrich2 score, wild type = 0); higher = more signal; HEK293T, FACS bins

R299del
cAMP reporter score ([1]; pH 5.5): -0.631 | cAMP reporter score ([1]; pH 6): -1.18 | cAMP reporter score ([1]; pH 6, modulator: ogerin): -1.66 | cAMP reporter score ([1]; pH 6.5, modulator: ogerin): -1.31 | surface expression score [2]: -1.24

A298_R299insGS
cAMP reporter score ([1]; pH 5.5): -1.07 | cAMP reporter score ([1]; pH 6): -0.515 | cAMP reporter score ([1]; pH 6, modulator: ogerin): -0.864 | cAMP reporter score ([1]; pH 6.5, modulator: ogerin): -1.36 | surface expression score [2]: -0.309

L305_A306del
cAMP reporter score ([1]; pH 5.5): 0.272 | cAMP reporter score ([1]; pH 6): 0.021 | cAMP reporter score ([1]; pH 6, modulator: ogerin): 0.173 | cAMP reporter score ([1]; pH 6.5, modulator: ogerin): -0.211 | surface expression score [2]: -0.282

A298_L300del
cAMP reporter score ([1]; pH 5.5): -0.4 | cAMP reporter score ([1]; pH 6): -0.183 | cAMP reporter score ([1]; pH 6, modulator: ogerin): -0.569 | cAMP reporter score ([1]; pH 6.5, modulator: ogerin): -0.329 | surface expression score [2]: 0.895

E326M
cAMP reporter score ([1]; pH 5.5): -0.83 | cAMP reporter score ([1]; pH 6): -1.43 | cAMP reporter score ([1]; pH 6, modulator: ogerin): -2.21 | cAMP reporter score ([1]; pH 6.5, modulator: ogerin): -0.749

E326K
cAMP reporter score ([1]; pH 5.5): 0.489 | cAMP reporter score ([1]; pH 6): 0.661 | cAMP reporter score ([1]; pH 6, modulator: ogerin): 0.65 | cAMP reporter score ([1]; pH 6.5, modulator: ogerin): -0.227 | surface expression score [2]: 0.533

E326H
cAMP reporter score ([1]; pH 5.5): 0.283 | cAMP reporter score ([1]; pH 6): -0.133 | cAMP reporter score ([1]; pH 6, modulator: ogerin): 0.492 | cAMP reporter score ([1]; pH 6.5, modulator: ogerin): 0.205 | surface expression score [2]: -0.658

E326T
cAMP reporter score ([1]; pH 5.5): 0.69 | cAMP reporter score ([1]; pH 6): -0.137 | cAMP reporter score ([1]; pH 6, modulator: ogerin): 0.699 | cAMP reporter score ([1]; pH 6.5, modulator: ogerin): 0.545 | surface expression score [2]: 0.397

E326D
cAMP reporter score ([1]; pH 5.5): 0.775 | cAMP reporter score ([1]; pH 6): -0.125 | cAMP reporter score ([1]; pH 6, modulator: ogerin): 1.29 | cAMP reporter score ([1]; pH 6.5, modulator: ogerin): 1.48

E326W
cAMP reporter score ([1]; pH 5.5): 0.911 | cAMP reporter score ([1]; pH 6): 0.427 | cAMP reporter score ([1]; pH 6, modulator: ogerin): 1.01 | cAMP reporter score ([1]; pH 6.5, modulator: ogerin): 1.2 | surface expression score [2]: -0.144

E326C
cAMP reporter score ([1]; pH 5.5): 1.18 | cAMP reporter score ([1]; pH 6): 0.994 | cAMP reporter score ([1]; pH 6, modulator: ogerin): 0.931 | cAMP reporter score ([1]; pH 6.5, modulator: ogerin): 1.48 | surface expression score [2]: 0.281

E326R
cAMP reporter score ([1]; pH 5.5): 1.07 | cAMP reporter score ([1]; pH 6): 1.31 | cAMP reporter score ([1]; pH 6, modulator: ogerin): 1.36 | cAMP reporter score ([1]; pH 6.5, modulator: ogerin): 1.66 | surface expression score [2]: 1.72

E326N
cAMP reporter score ([1]; pH 5.5): 0.603 | cAMP reporter score ([1]; pH 6): -0.219 | cAMP reporter score ([1]; pH 6, modulator: ogerin): 0.265 | cAMP reporter score ([1]; pH 6.5, modulator: ogerin): -0.508 | surface expression score [2]: 0.295

E326L
cAMP reporter score ([1]; pH 5.5): 1.17 | cAMP reporter score ([1]; pH 6): 0.403 | cAMP reporter score ([1]; pH 6, modulator: ogerin): 0.614 | cAMP reporter score ([1]; pH 6.5, modulator: ogerin): 0.889 | surface expression score [2]: 0.957

E326F
cAMP reporter score ([1]; pH 5.5): 0.106 | cAMP reporter score ([1]; pH 6): -1.22 | cAMP reporter score ([1]; pH 6, modulator: ogerin): 0.153 | cAMP reporter score ([1]; pH 6.5, modulator: ogerin): 0.582 | surface expression score [2]: -0.966

E326P
cAMP reporter score ([1]; pH 5.5): 0.179 | cAMP reporter score ([1]; pH 6): 0.225 | cAMP reporter score ([1]; pH 6, modulator: ogerin): 0.725 | cAMP reporter score ([1]; pH 6.5, modulator: ogerin): 1.13 | surface expression score [2]: -0.031

E326I
cAMP reporter score ([1]; pH 5.5): 1.41 | cAMP reporter score ([1]; pH 6, modulator: ogerin): 1.46 | cAMP reporter score ([1]; pH 6.5, modulator: ogerin): 1.05 | surface expression score [2]: 1.94

E326Q
cAMP reporter score ([1]; pH 5.5): 0.7 | cAMP reporter score ([1]; pH 6): -0.118 | cAMP reporter score ([1]; pH 6, modulator: ogerin): 1.2 | cAMP reporter score ([1]; pH 6.5, modulator: ogerin): 0.737 | surface expression score [2]: 0.711

E326A
cAMP reporter score ([1]; pH 5.5): -0.378 | cAMP reporter score ([1]; pH 6): 0.514 | cAMP reporter score ([1]; pH 6, modulator: ogerin): -0.138 | cAMP reporter score ([1]; pH 6.5, modulator: ogerin): 0.359 | surface expression score [2]: -0.332

E326Y
cAMP reporter score ([1]; pH 5.5): 0.557 | cAMP reporter score ([1]; pH 6): 0.289 | cAMP reporter score ([1]; pH 6, modulator: ogerin): 0.366 | cAMP reporter score ([1]; pH 6.5, modulator: ogerin): 0.132 | surface expression score [2]: 0.375

E326G
cAMP reporter score ([1]; pH 5.5): 2.12 | cAMP reporter score ([1]; pH 6): 1.09 | cAMP reporter score ([1]; pH 6, modulator: ogerin): 1.53 | cAMP reporter score ([1]; pH 6.5, modulator: ogerin): 1.4 | surface expression score [2]: 1.42

E326V
cAMP reporter score ([1]; pH 5.5): 0.744 | cAMP reporter score ([1]; pH 6, modulator: ogerin): 0.482 | cAMP reporter score ([1]; pH 6.5, modulator: ogerin): 1.07 | surface expression score [2]: 0.292

P325_E326insG
cAMP reporter score ([1]; pH 5.5): 0.487 | cAMP reporter score ([1]; pH 6): -0.142 | cAMP reporter score ([1]; pH 6, modulator: ogerin): 1.39 | cAMP reporter score ([1]; pH 6.5, modulator: ogerin): 1.05 | surface expression score [2]: 0.834

R299_L300insGS
cAMP reporter score ([1]; pH 5.5): -1.26 | cAMP reporter score ([1]; pH 6): -0.476 | cAMP reporter score ([1]; pH 6, modulator: ogerin): -1.6 | cAMP reporter score ([1]; pH 6.5, modulator: ogerin): -1.32 | surface expression score [2]: -0.629

L305_F307del
cAMP reporter score ([1]; pH 5.5): 0.808 | cAMP reporter score ([1]; pH 6): -0.227 | cAMP reporter score ([1]; pH 6, modulator: ogerin): 1.23 | cAMP reporter score ([1]; pH 6.5, modulator: ogerin): -0.93 | surface expression score [2]: -0.333

R315_A316insG
cAMP reporter score ([1]; pH 5.5): -0.866 | cAMP reporter score ([1]; pH 6): 0.017 | cAMP reporter score ([1]; pH 6, modulator: ogerin): -1.02 | cAMP reporter score ([1]; pH 6.5, modulator: ogerin): -0.179 | surface expression score [2]: 1.61

L322_G323insGSG
cAMP reporter score ([1]; pH 5.5): 0.994 | cAMP reporter score ([1]; pH 6): 0.828 | cAMP reporter score ([1]; pH 6, modulator: ogerin): 1.03 | cAMP reporter score ([1]; pH 6.5, modulator: ogerin): 1.57 | surface expression score [2]: 0.675

R301_A303del
cAMP reporter score ([1]; pH 5.5): -0.098 | cAMP reporter score ([1]; pH 6): -0.502 | cAMP reporter score ([1]; pH 6, modulator: ogerin): -0.547 | cAMP reporter score ([1]; pH 6.5, modulator: ogerin): -1.12 | surface expression score [2]: -1.53

R317_E318insG
cAMP reporter score ([1]; pH 5.5): 0.735 | cAMP reporter score ([1]; pH 6): 0.577 | cAMP reporter score ([1]; pH 6, modulator: ogerin): 0.603 | cAMP reporter score ([1]; pH 6.5, modulator: ogerin): 0.317 | surface expression score [2]: 0.537

A316_R317insG
cAMP reporter score ([1]; pH 5.5): 0.638 | cAMP reporter score ([1]; pH 6): -0.33 | cAMP reporter score ([1]; pH 6, modulator: ogerin): 0.444 | cAMP reporter score ([1]; pH 6.5, modulator: ogerin): 0.432 | surface expression score [2]: 0.047

A303_C304insGSG
cAMP reporter score ([1]; pH 5.5): 1.63 | cAMP reporter score ([1]; pH 6): -0.116 | cAMP reporter score ([1]; pH 6, modulator: ogerin): 1.05 | cAMP reporter score ([1]; pH 6.5, modulator: ogerin): 0.324 | surface expression score [2]: 0.488
